Reference: PubChem BioAssay AID1460 (National Center for Advancing Translational Sciences (NCATS), 2008)
Out of some 270,000 compounds screened, about 5,800 (2.1%) were called active. This list was built around the results that the source calls inconclusive (neither active nor inactive); the mix of calls is not that of the screen. Calls follow the shape of the dose curve; as a rule, active = well fitted inhibition curve with a large enough effect; inconclusive = small, poorly fitted or top-dose-only effect; inactive = flat fitted curve, though single readings scatter. A potency beside an inconclusive call is a rough fit, not a confirmed value.

Each compound was assayed against Microtubule-associated protein tau (Homo sapiens) (UniProt P10636) (assay: qHTS for Inhibitors of Tau Fibril Formation, Thioflavin T Binding). Conditions: recombinant tau K18 P301L (four-repeat tau fragment), heparin-induced fibrillization, ThT fluorescence; series mostly up to 57.4 µM; activity, negative = inhibition: at the top concentration.
Sequence of UniProt P10636 (P10636 whole entry, looked up, the tested form may be a part): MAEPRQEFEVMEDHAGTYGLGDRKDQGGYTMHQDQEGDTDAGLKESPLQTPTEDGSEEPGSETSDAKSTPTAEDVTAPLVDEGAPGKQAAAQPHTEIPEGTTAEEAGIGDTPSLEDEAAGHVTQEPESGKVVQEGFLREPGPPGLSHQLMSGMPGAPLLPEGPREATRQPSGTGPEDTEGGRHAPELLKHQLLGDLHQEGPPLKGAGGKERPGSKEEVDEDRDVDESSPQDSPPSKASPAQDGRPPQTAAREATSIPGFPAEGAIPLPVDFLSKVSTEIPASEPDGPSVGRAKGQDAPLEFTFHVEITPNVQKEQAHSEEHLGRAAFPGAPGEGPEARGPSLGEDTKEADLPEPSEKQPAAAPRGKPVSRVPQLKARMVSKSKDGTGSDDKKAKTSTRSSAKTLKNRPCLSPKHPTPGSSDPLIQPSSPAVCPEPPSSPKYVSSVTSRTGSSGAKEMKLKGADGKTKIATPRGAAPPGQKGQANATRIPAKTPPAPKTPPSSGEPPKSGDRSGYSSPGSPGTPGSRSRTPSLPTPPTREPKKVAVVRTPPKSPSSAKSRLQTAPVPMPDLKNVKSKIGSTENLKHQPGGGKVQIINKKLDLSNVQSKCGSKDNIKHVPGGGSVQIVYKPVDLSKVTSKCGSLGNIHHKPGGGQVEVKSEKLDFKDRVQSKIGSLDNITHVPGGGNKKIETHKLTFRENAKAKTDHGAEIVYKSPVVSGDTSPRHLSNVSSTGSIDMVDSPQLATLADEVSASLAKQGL
How it was run: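 Heparin-induced (20 uM) aggregation of recombinant human K18 P301L tau, 15 uM unlabeled with 0.24 uM labeled, pH 7 acetate buffer, 6 hr at 37 C with compound. Fibrils quantified by 30 uM ThT fluorescence after 1 hr ambient incubation.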
% is scaled to controls: 0 for no effect and ±100 for the full control effect; potency is read from the fitted curve at half-maximal effect; tags tell the direction and shape of the fitted curve.
Also: nearly all actives have a fitted effect of over 55% in size.

Compound | activity, negative = inhibition | Potency
Clc1ccc(Cc2nc(-c3cccnc3)no2)cc1 | inactive: -8.07% | 
C#CCOCCOCCOCCNc1nc(N2CCN(C(=O)[C@H](CCCCN)n3cc([C@@H](N)C(C)CC)nn3)CC2)nc(N2CCN(C(=O)[C@H](Cc3ccc(O)cc3)n3cc([C@@H](N)C(C)CC)nn3)CC2)n1 (stereo not given in full) |  | inconclusive: 17.8 µM [inhibitor, single point]
O=C(NOC(=O)c1ccccc1)c1ccccc1 |  | inconclusive: 12.6 µM [inhibitor, partial curve, poor fit]
Cc1nc2sc(-c3ccccc3)nn2c(=O)c1Br |  | inconclusive: 2.24 µM [inhibitor, full curve]
CCOC(=O)C(C)Sc1nc(-c2cccs2)ccc1C#N (stereo not given) |  | inconclusive: 12.6 µM [inhibitor, partial curve, poor fit]
Cc1ccc(OC(=O)c2snnc2C)cc1C |  | inconclusive: 31.6 µM [inhibitor, single point]
N#CC(Sc1ccccn1)c1ccc(Cl)cc1 (stereo not given) |  | inconclusive: 39.8 µM [inhibitor, single point]
COc1cc2nc(SCC(=O)Nc3ccc(F)cc3)n3nc(CCn4c(C)nc5ccccc54)nc3c2cc1OC |  | inconclusive: 25.1 µM [inhibitor, partial curve, poor fit]
Brc1cc(Br)c2nc(-c3cccs3)ccc2c1 |  | inconclusive: 20 µM [inhibitor, partial curve]
COc1ccc(C2c3c(n(C)c4ccccc34)C(=O)N2CC(=O)Nc2ccc(Cl)cc2)cc1 (stereo not given) | inactive: 0.818% | 
COC(=O)c1cc2oc(C)cc2n1Cc1c(C)cc(C)cc1C | inactive: -12.4% | 
COc1ccc(Cl)cc1NC(=O)CN(C)CC(=O)Nc1ccc(C)cc1Br |  | inconclusive: 14.1 µM [inhibitor, partial curve, poor fit]
COc1ccc(C(=O)c2ccc(Cl)cc2Cl)cc1 |  | inconclusive: 31.6 µM [inhibitor, single point]
CC1=C/C(=N\Nc2ccccc2[N+](=O)[O-])CC(C)(C)C1 |  | inconclusive: 20 µM [inhibitor, partial curve]
Cc1ccccc1C(=O)N1CCc2ccccc2C1 | inactive: -0.655% | 
COc1cc2c(=O)n(Cc3ccccc3)c(=O)n(CC(=O)Nc3cc(C(F)(F)F)ccc3Cl)c2cc1OC | inactive: -6.06% | 
O=C(N/N=C/C=C\c1ccco1)c1cccnc1 |  | inconclusive: 31.6 µM [inhibitor, partial curve]
NC(=O)CC1Nc2cccc3cccc(c23)NC1=O (stereo not given) | inactive: -2.28% | 
O=C(Cn1cnc2ccccc2c1=O)Nc1ccc(-c2nnc3n2CCCCC3)cc1 | inactive: -12.4% | 
C#CCSc1n[nH]c(=O)n1-c1cccc(C(F)(F)F)c1 | inactive: -3.09% | 
